In the supplement of paper PMC11876631:
± gives the standard deviation of the averaged measurements. Laboratory Escherichia coli strains with one amino-acid change in an essential protein, pooled on minimal glucose agar with carbenicillin or gentamicin at twice the control MIC (plus kanamycin and chloramphenicol for the plasmids), 48 h. Fold change of barcode share against drug-free plates; higher = less susceptible. Active = above 20 in both replicates (the paper's putatively resistant). '<' = one read or none on drug, '>' = one read or none on a drug-free plate. Shares are relative, so most strains fall below 1 when a few take over. Listed are strains with at least 15 reads on both drug-free plates, and hits; most hits rest on fewer reference reads. Replicate rank correlation about 0.5. Edits are read from barcodes.

B1: ftsI V468D (protein)
chain: MKAAAKTQKPKRQEEHANFISWRFALLCGCILLALAFLLGRVAWLQVISPDMLVKEGDMRSLRVQQVSTSRGMITDRSGRPLAVSVPVKAIWADPKEVHDAGGISVGDRWKALANALNIPLDQLSARINANPKGRFIYLARQVNPDMADYIKKLKLPGIHLREESRRYYPSGEVTAHLIGFTNVDSQGIEGVEKSFDKWLTGQPGERIVRKDRYGRVIEDISSTDSQAAHNLALSIDERLQALVYRELNNAVAFNKAESGSAVLVDVNTGEVLAMANSPSYNPNNLSGTPKEAMRNRTITDVFEPGSTVKPMVVMTALQRGVVRENSVLNTIPYRINGHEIKDVARYSELTLTGVLQKSSNVGVSKLALAMPSSALVDTYSRFGLGKATNLGLVGERSGLYPQKQRWSDIERATFSFGYGLMVTPLQLARVYATIGSYGIYRPLSITKVDPPVPGERVFPESIVRTVDHMMESVALPGGGGVKAAIKGYRIAIKTGTAKKVGPDGRYINKYIAYTAGVAPASQPRFALVVVINDPQAGKYYGGAVSAPVFGAIMGGVLRTMNIEPDALTTGDKNEFVINQGEGTGGRS
B2: ftsI M471A (protein)
chain: MKAAAKTQKPKRQEEHANFISWRFALLCGCILLALAFLLGRVAWLQVISPDMLVKEGDMRSLRVQQVSTSRGMITDRSGRPLAVSVPVKAIWADPKEVHDAGGISVGDRWKALANALNIPLDQLSARINANPKGRFIYLARQVNPDMADYIKKLKLPGIHLREESRRYYPSGEVTAHLIGFTNVDSQGIEGVEKSFDKWLTGQPGERIVRKDRYGRVIEDISSTDSQAAHNLALSIDERLQALVYRELNNAVAFNKAESGSAVLVDVNTGEVLAMANSPSYNPNNLSGTPKEAMRNRTITDVFEPGSTVKPMVVMTALQRGVVRENSVLNTIPYRINGHEIKDVARYSELTLTGVLQKSSNVGVSKLALAMPSSALVDTYSRFGLGKATNLGLVGERSGLYPQKQRWSDIERATFSFGYGLMVTPLQLARVYATIGSYGIYRPLSITKVDPPVPGERVFPESIVRTVVHMAESVALPGGGGVKAAIKGYRIAIKTGTAKKVGPDGRYINKYIAYTAGVAPASQPRFALVVVINDPQAGKYYGGAVSAPVFGAIMGGVLRTMNIEPDALTTGDKNEFVINQGEGTGGRS
B3: argC I149A (protein)
chain: MLNTLIVGASGYAGAELVTYVNRHPHMNITALTVSAQSNDAGKLISDLHPQLKGIVDLPLQPMSDISEFSPGVDVVFLATAHEVSHDLAPQFLEAGCVVFDLSGAFRVNDATFYEKYYGFTHQYPELLEQAAYGLAEWCGNKLKEANLAAVPGCYPTAAQLALKPLIDADLLDLNQWPVINATSGVSGAGRKAAISNSFCEVSLQPYGVFTHRHQPEIATHLGADVIFTPHLGNFPRGILETITCRLKSGVTQAQVAQVLQQAYAHKPLVRLYDKGVPALKNVVGLPFCDIGFAVQGEHLIIVATEDNLLKGAAAQAVQCANIRFGYAETQSLI
B4: argC I149W (protein)
chain: MLNTLIVGASGYAGAELVTYVNRHPHMNITALTVSAQSNDAGKLISDLHPQLKGIVDLPLQPMSDISEFSPGVDVVFLATAHEVSHDLAPQFLEAGCVVFDLSGAFRVNDATFYEKYYGFTHQYPELLEQAAYGLAEWCGNKLKEANLWAVPGCYPTAAQLALKPLIDADLLDLNQWPVINATSGVSGAGRKAAISNSFCEVSLQPYGVFTHRHQPEIATHLGADVIFTPHLGNFPRGILETITCRLKSGVTQAQVAQVLQQAYAHKPLVRLYDKGVPALKNVVGLPFCDIGFAVQGEHLIIVATEDNLLKGAAAQAVQCANIRFGYAETQSLI
B5: argC I149Q (protein)
chain: MLNTLIVGASGYAGAELVTYVNRHPHMNITALTVSAQSNDAGKLISDLHPQLKGIVDLPLQPMSDISEFSPGVDVVFLATAHEVSHDLAPQFLEAGCVVFDLSGAFRVNDATFYEKYYGFTHQYPELLEQAAYGLAEWCGNKLKEANLQAVPGCYPTAAQLALKPLIDADLLDLNQWPVINATSGVSGAGRKAAISNSFCEVSLQPYGVFTHRHQPEIATHLGADVIFTPHLGNFPRGILETITCRLKSGVTQAQVAQVLQQAYAHKPLVRLYDKGVPALKNVVGLPFCDIGFAVQGEHLIIVATEDNLLKGAAAQAVQCANIRFGYAETQSLI
B6: argC I149D (protein)
chain: MLNTLIVGASGYAGAELVTYVNRHPHMNITALTVSAQSNDAGKLISDLHPQLKGIVDLPLQPMSDISEFSPGVDVVFLATAHEVSHDLAPQFLEAGCVVFDLSGAFRVNDATFYEKYYGFTHQYPELLEQAAYGLAEWCGNKLKEANLDAVPGCYPTAAQLALKPLIDADLLDLNQWPVINATSGVSGAGRKAAISNSFCEVSLQPYGVFTHRHQPEIATHLGADVIFTPHLGNFPRGILETITCRLKSGVTQAQVAQVLQQAYAHKPLVRLYDKGVPALKNVVGLPFCDIGFAVQGEHLIIVATEDNLLKGAAAQAVQCANIRFGYAETQSLI

Target: Escherichia coli (laboratory strain)
Assay: barcode share on antibiotic plates over drug-free plates; higher = less susceptible
Protocol: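 A pool of E. coli strains, each edited to carry one amino-acid change in an essential protein, was grown for 48 h on minimal glucose agar with or without antibiotic; strain barcodes were sequenced; mean of two replicates.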

[1] = antibiotic: carbenicillin, 2× MIC (3.1 µg/mL)
[2] = antibiotic: gentamicin, 2× MIC (MIC 0.45 µg/mL)

Row | Protein | fold change of barcode share [1] | fold change of barcode share [2]
1 | B1 | 0.29 ± 0.096 | 0.0195 ± 0.0043
2 | B2 | 98.6 [active] | 
3 | B3 | 1.02 ± 0.65 | 0.0244 ± 0.012
4 | B4 | 0.465 ± 0.041 | 0.0181 ± 0.013
5 | B5 | 2.98 ± 0.96 | 
6 | B6 | > 22.6 [active] | 
